This sample is rich in variants without activity.
B1: TPR 5TU (parent)
chain: GGAUCUUCUCGAUCUAACAAAAAAGACAAAUCUGCCACAAAGCUUGAGAGCAUCUUCGGAUGCAGAGGCGGCAGCCUUCGGUGGCGCGAUAGCGCCAACGUUCUCAACUAUGACACGCAAAACGCGUGCUCCGUUGAAUGGAGUUUAUCAUG

Variants of: B1
Test: polymerase ribozyme fitness, log enrichment relative to wild type (log ratio); higher = more active; in vitro selection for triplet polymerase activity
Procedure, shortened: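 Fitness measures genotype enrichment against wild-type enrichment on a logarithmic scale, with inverse-variance-weighted averaging of replicates. The logarithm is base 2, and genotypes were kept only with ≥10 input reads and ≥1 read per output in Illumina sequencing. The sequenced libraries came from one triplicate in vitro selection round, including frozen incubation at −7 °C, of PCR-built, transcribed mutant libraries of each subunit of a heterodimeric triplet polymerase ribozyme.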

Q: Which “polymerase ribozyme fitness (log ratio)” value does the source give for GGAUCUUCUCGAUAUAACAAAAAAGCCAAAUCUGCCACAAAGCUUGAGAGCAUCGUCGGAUGCAGAGCCGGUAGCCUUCGGUGGCGCGAUAACGCCAACGUUCUCAACUAUGACACGCAAAACGCGUGCUCCGUUGAAUGGAGUUUGUCAUG [C14A A26C U55G G68C C72U G92A A147G] here?
A: Its value is no more than -4.2.

Q: Which “polymerase ribozyme fitness (log ratio)” value does the source give for GGAUCUUCUCGAUAUAACAAAAAAGACAAAUCUGCCACUAAGCUUGAGAGCAUCUUCGGAUGCAGAGGCGGCAGCCUUCGGUGGCGGGAUAGCGCCAACGUUCUCAACUAUGACACGCAAAACGCGUGCUCCGUUGAAUGGAGUUUAUCAUG [C14A A39U C87G] here?
A: The value was no more than -4.2.

Q: Which “polymerase ribozyme fitness (log ratio)” value does the source give for GGAUCUUCUCGAUAUAACAGAAAAGACAAAUCUGCCACAAAGCUUGAGAGCAUCUUCGGAUGCAGAAGCGGCAGCCUUCGGUGGAGCGAUAGCGCCAACGUUCUCAACUAUGACACGCAAAACGCAUGCUCCGUUGAAUGGAGAUUAUCAUG [C14A A20G G67A C85A G126A U144A] here?
A: Its value is no more than -4.2.

Q: For GGAUCUUCUCGAUAUAGCAAAAAAGACACAUCUGCCGCAAAGCUUGAGAGCAUCUUCGGAUGCAGAGUCGGCAGCCUUCGGUGGCGCCAUAGCGCCAACGUUCUCAACUAUGACACGCUAAACGCGUGCUCCGUUGAAUGGAGUUUAUCAUC [C14A A17G A29C A37G G68U G88C A119U G152C], which “polymerase ribozyme fitness (log ratio)” value is on record?
A: Its value is no more than -4.2.

Q: For GGAUCUUCUCGAUAUAACAAAAAAGACAAAUCUGCCACAAAGCUUGAGAGCGUCUUCGGAUGCAGAGGCGGCAGCCUUCGGUGGCGCGAUAGCUCCAACGUUCUCAACUAUGACACGCAAAACGCGUGCUCCGUGGAAUGGAGUUUAUGAUG [C14A A52G G94U U135G C149G], which “polymerase ribozyme fitness (log ratio)” value is on record?
A: Its value is no more than -4.2.

Q: With GGAUCUUCUCGAUAUAACACAAAAGACAAAUCUGCCACAAAGCUUGAGAGCAUCUUCCGAUGCAGAGGCCGCAGCCUUCGGUGGCGCGAUAGCUCCAACGUUCUCAACUAUGACACGCAAAAGGCGUGCUCCGUUGAAUGGAGUUUAUCAUG [C14A A20C G58C G70C G94U C123G] as the variant, how does the “polymerase ribozyme fitness (log ratio)” value read?
A: Its value is no more than -4.2.

Q: With GGAUCUUCUCGAUAUAACAAAAAAGACACAUCUGCCACAAAGCUUGAGAGCAUCUUCGGAUGCAGAGGCGGCAGCCUUCGGUGGCGCGAUAGCGCGAACGUUCUCAACUAUGACACGCAAAACGCGUGCUCCGUUGAAUGGAGUUUAUCAUG [C14A A29C C96G] as the variant, how does the “polymerase ribozyme fitness (log ratio)” value read?
A: Its value is no more than -4.2.

Q: For GGAUCUUCUCGAUAUAACAAAAAAGACAAAUCUGCCACAAAGCUUGAGAGCAUCUUCGGGUGCAGAGGCCGCAGCCUUCGGUGGCGCGAUAGCGCCAACGUUCUCACCUAAGACACGCAAAACGCGUGCUCCGUUGAAUGGAGUUUAUCAUG [C14A A60G G70C A107C U111A], which “polymerase ribozyme fitness (log ratio)” value is on record?
A: The value was no more than -4.2.

Q: With GGAUCUUCUCGAUAUAACAAAAAAGACAAAUCUGCCACAUAGCUUGAGAGCAUCUUCGGAUGCAGAGGCGGCAGCUUGCGGUGACGCGAUAGCGCCAACGUUGUCAACUAUGACACGCAAAACGCGUACUCCGUUGAAUGCAGUUUAUCAUG [C14A A40U C76U U78G G84A C103G G128A G141C] as the variant, how does the “polymerase ribozyme fitness (log ratio)” value read?
A: The value was no more than -4.2.

Q: With GGAUCUUCUCGAUAUAACAAAAAAGACAAAUCUGCCACAGAGCUUGCGACCAUGUUCGGAUGCAGAGGCGGCAGCAUUCGGUGGCGCGAUAGCGCCAACGUUCUCAACUAUGACAUGCAAAACGCGUGCUCGGUUGAAUGGAGUUUAUCAUG [C14A A40G A47C G50C C54G C76A C116U C132G] as the variant, how does the “polymerase ribozyme fitness (log ratio)” value read?
A: The value was no more than -4.2.

Q: For GGAUCUUCUCGAUAUAACAAAAAAGACAAUUCUGCCACAAAGCUUGAGAGCAUCUUCGGAUGCAGAGGGGGCAGCCUUCGGUGGCGCGUUAGCGACAACGUUCUCAACUAUGACACGCAAAACGCGUGCUCCGUUGAAUGGAGUUUAUCAUG [C14A A30U C69G A89U C95A], which “polymerase ribozyme fitness (log ratio)” value is on record?
A: The value was no more than -4.2.

Q: With GGAUCUUCUCGAUAUAACAAAAAAGACAUAUCUGCCACAAAGCUUGAGAGCAUCUUCGGAUGCAGAGGCGGCAGCCUUCGGUGGCGCGAUAGCUCCAACGUUCUCAACUAUGACACGCAAAACGCGUGCUCCGGUGAAUGGAGUUUAUCAUG [C14A A29U G94U U134G] as the variant, how does the “polymerase ribozyme fitness (log ratio)” value read?
A: Its value is no more than -4.2.

Q: With GGAUCUUCUCGAUAUAACUACAAAGACAAAUCUGCCACAAAGCUUGAGAGCAUCUUCGGGUGCAGAGGCGGCAGCCUUCGGUGGCGCGAUAGCGCCAACGUUCUCAACUAUGACACGCAAAACGCGUGCUCCGUUGAAUGGAGUUUAUCAUG [C14A A19U A21C A60G] as the variant, how does the “polymerase ribozyme fitness (log ratio)” value read?
A: The value was -1.8.

Q: With GGAUCUUCUCGAUAUAACAAAAAGGACAUAUCUGCCACAAAGCUUGAGAUCAACAUCGGAUGCAGAGGCGGCAGCCUUCGGUGGCGCGAUAACGCCAAGGUACUCAACUAUGAGACGCAAAACGCGUGCUCCGGUGAAUGGAGUUUAUCAUG [C14A A24G A29U G50U U53A U55A G92A C99G U102A C114G U134G] as the variant, how does the “polymerase ribozyme fitness (log ratio)” value read?
A: Its value is no more than -4.2.

Q: With GGAUCUUCUCGAUAUAACAAAAAAGACAAAUCUGCCACAAAGCUUGUGAGCAUUUUCGGAUGCAGAGGCGGCAGCGUUCGGUAGCAACCUACCGCCAACGUUCUCAACUAUGACACGCAAAACGCGUGCUCCGUUGAGUGGAGUUUAUCAUG [C14A A47U C54U C76G G83A G86A C87A G88C A89C G92C A138G] as the variant, how does the “polymerase ribozyme fitness (log ratio)” value read?
A: The value was no more than -4.2.

Q: With GGAUCUUCUCGAUAUAACAUAAAAGUCAAAUCUGCCACAAAGCUUGAGAGCAUCUUCGGAUGCAGAGGCGGCAGCCGUCGGUGGCGCGAUAGCGCCAACGUUCUCAACUAUGACACGAAAAACGCGUGCUCCGUUGAAUUUAGUUUAUCAUG [C14A A20U A26U U77G C118A G140U G141U] as the variant, how does the “polymerase ribozyme fitness (log ratio)” value read?
A: Its value is no more than -4.2.

Q: With GGAUCUUCUCGAUAUAACAAAAAAGUCAAAUCUGCCGCAAAGCUUGAGAGCAUGUUCGGAUGCAGAGGCGGCAGCCUUCGGUGGCGCGAUAGCUCCAACGUUCUCAACUAUGACACGCAAAACGCGUGCUCCGUUGAAUGGAGUUUAUCAUG [C14A A26U A37G C54G G94U] as the variant, how does the “polymerase ribozyme fitness (log ratio)” value read?
A: Its value is no more than -4.2.

Q: For GGAUCUUCUCGAUAUAACAAAAAAGACAAAUCUGCCACGAAACUUGAGAGCAUCUUCGGAUGCAGAGGCGGCAGCCUUCGGCGGCGCCAUAGCGCCAACGUUCUCAACUAUGACACGCAAAACGCGUGCUCCGUUGAAUGGAGUUUAUCAUG [C14A A39G G42A U82C G88C], which “polymerase ribozyme fitness (log ratio)” value is on record?
A: The value was no more than -4.2.

Q: Which “polymerase ribozyme fitness (log ratio)” value does the source give for GGAUCUUCUCGAUAUAACAGAAAAGACAAAUCUGCCACAAAGCUUGAGGGCAUCUUCGGAUGCAGAGGCGGCAGCCUUCGGUGGCGCGAUAGCGUCAACGUUCUGAACUAUGACACGGAGAACGCGUGCUCCGUUGAAUGGAGUUAACCAUG [C14A A20G A49G C95U C105G C118G A120G U146A U148C] here?
A: The value was no more than -4.2.

Source: the RNAGym collection of RNA variant scans (doi:10.1073/pnas.2313332121)
